# Test results from the supplement of paper PMC3334620.
# The full ranking holds about 33,000 sequences; the median of “E-score (-0.5 to 0.5)” is about -0.041, and the highest 2% start at about 0.37. Some of the results follow.
# Target: T1, Ecm22 (UniProt Q05958)
# T1 sequence: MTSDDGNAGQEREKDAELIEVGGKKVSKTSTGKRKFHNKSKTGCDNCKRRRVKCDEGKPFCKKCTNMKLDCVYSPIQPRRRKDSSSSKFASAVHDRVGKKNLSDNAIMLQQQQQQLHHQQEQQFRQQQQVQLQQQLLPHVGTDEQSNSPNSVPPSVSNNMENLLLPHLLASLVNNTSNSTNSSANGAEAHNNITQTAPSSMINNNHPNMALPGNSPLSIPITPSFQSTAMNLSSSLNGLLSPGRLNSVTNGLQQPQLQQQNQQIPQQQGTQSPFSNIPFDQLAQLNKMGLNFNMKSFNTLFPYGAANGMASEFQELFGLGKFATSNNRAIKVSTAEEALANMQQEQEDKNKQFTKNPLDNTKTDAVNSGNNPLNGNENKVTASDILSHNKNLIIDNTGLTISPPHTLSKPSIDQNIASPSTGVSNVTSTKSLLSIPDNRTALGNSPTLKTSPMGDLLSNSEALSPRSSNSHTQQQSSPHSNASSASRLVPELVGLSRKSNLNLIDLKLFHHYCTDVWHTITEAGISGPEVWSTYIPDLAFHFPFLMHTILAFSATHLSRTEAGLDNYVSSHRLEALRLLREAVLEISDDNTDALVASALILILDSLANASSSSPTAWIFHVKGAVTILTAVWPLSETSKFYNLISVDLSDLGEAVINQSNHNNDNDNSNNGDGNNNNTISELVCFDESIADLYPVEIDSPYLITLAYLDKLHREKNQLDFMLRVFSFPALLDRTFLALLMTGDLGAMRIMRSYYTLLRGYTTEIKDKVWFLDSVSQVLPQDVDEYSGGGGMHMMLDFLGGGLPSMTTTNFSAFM
# Assay: PBM E-score (8-mer binding enrichment) (E-score (-0.5 to 0.5)); higher = stronger / more preferred TF binding; most listed sequences are background and not binding sites
# Settings: protein concentration: 200 nM; construct: GST-full length
# Outline: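 For each ungapped eight-base word taken together with its reverse complement, the Universal PBM Analysis Suite assigned an E-score. Binding data came from GST-tagged yeast transcription factors, applied at about 100-200 nM, on universal all-10-mer Agilent arrays made double-stranded by primer extension. Fluorescent anti-GST marked bound protein, and scans were normalised with masliner.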
row,Sequence,PBM E-score
1,CGCCCCAG,-0.0935
2,CCTTGATC,-0.0846
3,ACATGAAG,-0.225
4,CATCATTA,-0.024
5,CACAATGG,-0.202
6,TTATATAA,0.145
7,AGCATATA,0.0134
8,AGCGGCGG,0.149
9,GAGCATGC,-0.196
10,CGTACATC,0.353
11,ATGAGGGG,-0.262
12,ATACTCAC,0.0494
13,GAGTAAGC,-0.091
14,ATTGCTTA,-0.155
15,ACCAGAAT,-0.0563
16,ATAACGGC,0.146
17,CTGTCGCA,0.124
18,CATAAACG,0.437
19,ACACATCG,0.0325
20,GCCCGCCA,-0.215
21,CCACAGCG,-0.215
22,GGCGTCAA,-0.119
23,ATTTTGTG,-0.0742
24,ACCCGCAT,0.195
25,ATTTGCAC,-0.0139

row,Sequence,PBM E-score
1,CAGCTTAG,-0.275
2,GATTAGAC,-0.00927
3,GCACATGC,-0.199
4,GGTGCTAC,-0.158
5,AGCGGACC,0.0552
6,CCGGATTA,-0.0891
7,ATGTGAGA,-0.24
8,CGTGGCTC,-0.0731
9,ATAGTCGC,0.146
10,CAACCCTA,-0.119
11,ATCATTAC,0.0137
12,ATACTGTG,-0.00032
13,ATTACTCG,0.162
14,CCTCGCCC,0.209
15,ACCACTCA,-0.0269
16,CCGCATTC,-0.074
17,AAGCCAGC,-0.0184
18,CTTCTATC,-0.0966
19,CCGGCCTA,-0.0841
20,CGCGGCCA,-0.187
21,CATCCTCC,0.0293
22,GTAGCTTA,0.121
23,AATGGCTG,-0.124
24,AGAACTTG,-0.0307
25,CCGCCATC,-0.267

row,Sequence,PBM E-score
1,TATCTACA,-0.0752
2,GAGGTAAC,0.122
3,ACAAGAAC,0.205
4,GTTGATTA,-0.011
5,CAGCACAA,0.0144
6,ACGGGGCT,0.0577
7,CTAATCAG,-0.108
8,CCTCGCAG,0.0132
9,ACGCCAAT,0.125
10,ATTGTGAG,-0.0713
11,AATAGACG,0.0929
12,CAGTCCGA,-0.0909
13,CCGTGGAG,-0.179
14,CCTGCCCA,-0.4
15,CCCTCATC,-0.0579
16,CATGCGAA,0.214
17,CTGTAAAG,-0.0602
18,AAGGCGTC,-0.0974
19,TAGATACA,0.00716
20,AACCACAG,-0.0787
21,ACCATGCC,-0.251
22,GTCGAGGA,-0.11
23,CAGGCCGG,-0.32
24,ACGAAATA,0.381
25,GCCGTACC,0.441

row,Sequence,PBM E-score
1,ATCGTCAG,-0.276
2,CTACTGCA,-0.158
3,ATCACTGA,-0.129
4,CAAGAGAG,-0.156
5,GAAATATA,0.16
6,CGCCTGTC,-0.0793
7,CAGTCAGG,-0.254
8,AGTCCTTG,-0.27
9,GGACGGAC,-0.0309
10,GATGGCAA,-0.0627
11,TAAAGCTA,-0.115
12,AGTGCCCA,-0.126
13,CGCCGCTA,-0.0727
14,AACTGCCG,0.0114
15,CGCAAGAA,0.152
16,CCGAGACG,0.205
17,GCAAGAAA,-0.095
18,ATCGTATC,0.418
19,AATACCGG,-0.042
20,CGACTTTC,0.112
21,GCACAGTA,0.0488
22,CATGGGAC,-0.278
23,AACGGTCA,0.204
24,GCAGGGCC,-0.0785
25,GCCAGATA,-0.00835

row,Sequence,PBM E-score
1,CTAATATC,0.00353
2,ACCATCAA,-0.121
3,CCGTCAGC,-0.215
4,CTCACTAA,0.085
5,AACTGCCA,-0.0583
6,AGCGCATA,0.025
7,CCTTCGGA,0.249
8,CGCTCAGA,0.112
9,ATCCCACG,-0.124
10,AGCATACG,0.294
11,CTTAGGTC,0.0126
12,CCTATAGC,-0.248
13,ACGTCATA,0.0355
14,GCTATTAC,0.0971
15,GGGAATAC,0.154
16,GGTCAGTA,-0.0823
17,GGATGCCA,-0.257
18,TAGCACTA,-0.229
19,CCACTTGA,-0.227
20,ACAGTCTA,-0.00051
21,AGGTAAAT,-0.0314
22,CGGGGCTC,0.0952
23,GGTGATAA,-0.0729
24,ACCAACCT,-0.108
25,ATCCCCCG,0.0316

row,Sequence,PBM E-score
1,CTAAACAA,-0.262
2,CGTTAATC,0.323
3,CGAGGGGA,0.327
4,GGAGCAAC,-0.0171
5,ACAGCGCT,0.0457
6,CATCACCC,-0.22
7,AAGTTGAC,0.0165
8,CAAAAGCA,-0.0601
9,AGCGAAGC,0.138
10,GTGAAAAC,0.00576
11,GAACCGAA,0.276
12,AAATCCGG,0.104
13,GGGAAACC,-0.0175
14,TTAATCAA,0.0361
15,CCGAGACC,0.0754
16,GTACTATA,0.175
17,CAGGAAAC,0.0585
18,AACTTACG,0.173
19,AGAATCAT,-0.0857
20,CTCGAGCA,-0.0461
21,ACAAGTGC,0.0148
22,CGGCCTTA,-0.105
23,CTTCATCC,-0.178
24,AACACCCT,-0.176
25,ACAGATGA,-0.0756

row,Sequence,PBM E-score
1,ACGGGGAA,0.249
2,AAACCAGA,-0.0849
3,AGCGATGC,0.212
4,GCGTGGCC,-0.0838
5,ATTGGTAA,-0.0838
6,GCAAACTA,-0.0308
7,CAGAAACA,-0.0444
8,AATCCGAT,0.142
9,GGACTGAA,-0.141
10,CCAGTGTC,-0.0884
11,ACGGAATG,0.0826
12,AGCGGTTC,0.0806
13,ACACCTAA,0.059
14,TCATAAAA,-0.0555
15,AAGCCCTC,-0.0697
16,CTAAATGA,-0.165
17,CCGCGGGC,-0.2
18,ATCAAGCC,0.0241
19,AAAGTGGT,-0.0949
20,ACACATAC,0.0488
21,CCTAACCG,0.0543
22,ATCTCTGA,-0.207
23,AAACCGAC,0.282
24,GCTCTTCC,-0.0296
25,CAAAACGG,0.0645

row,Sequence,PBM E-score
1,ACTTGAAG,-0.12
2,ACACTGAG,-0.0764
3,CGTGCCGC,0.176
4,ATTCATCG,0.0765
5,ACTATATA,0.16
6,CCCGACCC,0.092
7,ACCGACAG,0.156
8,ACCGAGTC,0.0171
9,CTGATAAA,-0.0416
10,AGGCCCAG,-0.302
11,GATAGCCA,-0.13
12,CATGCTAC,-0.225
13,GGCGGCCA,-0.241
14,ATTTACGC,0.0401
15,ATATTCGG,0.0737
16,TATACTAA,0.184
17,AGTTGAGA,-0.0828
18,GCTTGCTA,-0.0965
19,CGTCAGTC,-0.0862
20,GGCGCCAA,-0.0449
21,CGCACACA,-0.00717
22,AAGTTTCA,0.136
23,CCCGCGGG,-0.195
24,ATCGTCTG,0.128
25,GGACCGTA,0.233

row,Sequence,PBM E-score
1,ACGTGCCA,-0.256
2,GCACAGAA,-0.068
3,ACTGGGAC,-0.133
4,AGACGATC,-0.0754
5,CATACCAA,-0.12
6,CTGCGTTC,0.213
7,CCGGAGTA,0.118
8,GCACAGCA,0.0196
9,AACAACGT,0.054
10,ATATACAT,0.0421
11,CCTCCAGC,-0.0677
12,GAAACTAC,-0.0387
13,CTTGTTCC,0.0902
14,CATTGTAG,-0.0693
15,GAACACTA,-0.126
16,ATTGTTTA,-0.0806
17,ACGACCTC,0.337
18,AGGTATTG,-0.0537
19,ATAGTTCG,0.0449
